Results from PubChem BioAssay AID686971 (National Center for Advancing Translational Sciences (NCATS), 2013).
The campaign covered roughly 360,000 compounds. About 7,500 (2.1%) were called active. Inconclusive results, whose numbers are uncertain, are shown with a selection of clear calls. Calls follow the shape of the dose curve; as a rule, active = well fitted cell-killing curve with a large enough effect; inconclusive = small, poorly fitted or top-dose-only effect, or effect the other way, or another doubt; inactive = no such curve, though single readings can be large or run the other way. Potencies of inconclusive entries are left out as doubtful fits.

experiment: qHTS for induction of synthetic lethality in tumor cells producing 2HG: qHTS for the HT-1080-IDH1KD cell line; settings: HT-1080 IDH1 knockdown viability, ATP luminescence, 48 h; activity, negative = toxicity: at 46.1 µM (top of the series) unless noted;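 as to activity, negative = toxicity: 0% = DMSO wells and -100% = cell-free medium wells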
Method in brief: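 IDH1KD HT-1080 cells, 750/well, RPMI + 5% FBS; compound pinned after 2 h settling; 48 h, 37 °C; CellTiter-Glo luminescence; % activity normalised to DMSO and no-cell wells; curves fitted, classed by r2 and efficacy.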
Potency is read from the fitted curve at half-maximal effect; tags tell the direction and shape of the fitted curve.

| Structure (SMILES) | Potency | activity, negative = toxicity |
| --- | --- | --- |
| Cc1onc(-c2ccccc2Cl)c1C(=O)Nc1ccc(-n2nncc2-c2ccco2)cc1 | inconclusive [cytotoxic, single point] |  |
| O=[N+]([O-])c1ccc(N2CCCCC2)nc1N1CCCCC1 | inconclusive [cytotoxic, single point] |  |
| Fc1cccc(Cc2c(-c3ccco3)nc3c(Cl)cc(C(F)(F)F)cn23)c1 | inconclusive [cytotoxic, single point] |  |
| CCCCc1ccc(NC(=S)NCCc2ccc(F)cc2)cc1 | inconclusive [cytotoxic, single point] |  |
| COc1ccc2nc(SCC(=O)NC3CCCC3)c(C)cc2c1 | active: 5.8 µM |  |
| COCCN1CCCC(CNCc2cn(C)nc2-c2ccc(Oc3ccccc3)cc2)C1 (configuration not stated) | inconclusive [cytotoxic, single point] |  |
| COc1ccc(/C=N\NC(=O)c2ccc(-c3ccccc3)cc2)c(OC)c1OC | inactive |  |
| O=c1c2cc(NC(=S)NCc3cccnc3)ccc2nc2n1CCCCC2 | inconclusive [cytotoxic, partial curve] |  |
| Cc1cc(Nc2ccccc2)nc(NCc2ccccc2)n1 | active: 23.1 µM |  |
| CC(NC(=O)CCl)c1ccc(Cl)c(Cl)c1 (configuration not stated) | active: 16.4 µM |  |
| CCCCc1c(Cc2cccc(F)c2)ncn1CCc1ccccc1OC | inconclusive [cytotoxic, single point] |  |
| CCOc1ccccc1C(=O)NCCNC(=O)c1ccccc1OCC |  | inconclusive: 31.5% |
| Cc1cc(C(=O)N/N=C/c2ccc(OC(=O)c3ccccc3Br)cc2)n[nH]1 | inactive |  |
| COc1ccc(/C=C2\N=C(c3ccccc3Cl)NC2=O)cc1 | active: 14.6 µM |  |
| O=C(c1cccc(S(=O)(=O)N2CCc3ccccc32)c1)N1CCN(c2ccccc2)CC1 | inconclusive [cytotoxic, single point] |  |
| C[C@H](CO)N1C[C@H](C)[C@@H](CN(C)C(=O)OCc2ccccc2)OCc2cn(nn2)CCCC1=O | inactive |  |
| Cc1ccc(S(=O)(=O)CCSc2nc(C)cc(C(F)(F)F)c2C#N)cc1 | inconclusive [cytotoxic, single point] |  |
| Cc1cccc(N2CCN(C(=O)c3ccc4ccccc4c3)CC2C)c1 (configuration not stated) | inactive |  |
| COc1ccccc1NC(=O)CN1CCN(C2c3ccccc3-c3ccccc32)CC1 | inconclusive [cytotoxic, single point] |  |
| Cc1cccc(N2CCN(Cc3ccoc3)CC2)c1C | inconclusive [cytotoxic, single point] |  |
| O=C(N[C@@H](Cc1ccccc1)C(=O)CCl)OCc1ccccc1 | active: 20.6 µM |  |
| COc1ccc(NC(=O)COC(=O)CCCc2c[nH]c3ccccc23)cc1OC | inactive |  |
| FC(F)(F)c1cc(Cc2nc3ccccc3n2C(CCc2ccccc2)c2nc3ccccc3[nH]2)cc(C(F)(F)F)c1 (configuration not stated) | inconclusive [cytotoxic, single point] |  |
| Cc1nnnn1/C(=C\c1ccccc1)C(=O)OCC(=O)Nc1ccc(Cl)cc1F | inconclusive [cytotoxic, single point] |  |

| Structure (SMILES) | Potency | activity, negative = toxicity |
| --- | --- | --- |
| CCSc1nnc2c(n1)[nH]c1c(C)cccc12 | inconclusive [cytotoxic, partial curve, poor fit] |  |
| O=C1ON=C(c2ccc(Cl)c([N+](=O)[O-])c2)/C1=C/c1cccc([N+](=O)[O-])c1O | inactive |  |
| C=C1C(=O)O[C@H]2C[C@H]1[C@@H](OC(C)=O)C/C(C)=C/CC/C(C)=C\CC[C@]2(C)O | active: 16.4 µM |  |
| CC(C)(C)SCCNC(=O)Nc1ccccc1 | inactive |  |
| CCCCn1c(N)c(N(CC(C)C)C(=O)Cc2ccc(S(=O)(=O)N3CCOCC3)s2)c(=O)[nH]c1=O | inactive |  |
| c1ccc2c(c1)C1=NCCN1c1ccccc1-2 | active: 16.4 µM |  |
| CCOc1cc(NC(=S)Nc2cccc(OC)c2)c(OCC)cc1NC(=O)c1ccc(C)cc1 | inconclusive [cytotoxic, single point] |  |
| O=C(NCc1ccco1)/C(=C/c1cccc(C(F)(F)F)c1)c1nc2ccccc2[nH]1 | inconclusive [cytotoxic, single point] |  |
| CC(=O)NC(NC(=S)N1CCCCCC1)C(Cl)(Cl)Cl (configuration not stated) | inactive |  |
| Cc1ccc(Sc2c([N+](=O)[O-])ncn2C)cc1 | inactive |  |
| COc1cc(/C=C2\SC(=S)N(CCC(=O)Nc3ccc(O)cc3)C2=O)cc(OC)c1OC | inconclusive [cytotoxic, single point] |  |
| COc1cc(N/N=C/c2ccccc2O)ncn1 | inconclusive [cytotoxic, partial curve] |  |
| CCOC(=O)C(=O)/C(=C\N(C)C)c1onc(-c2c(Cl)cccc2Cl)c1C(=O)OC | inactive |  |
| CCOC(=O)C1=CCC(c2ccccc2C)N(S(=O)(=O)c2ccc(C)cc2)C1 (configuration not stated) | inconclusive [cytotoxic, single point] |  |
| Cc1sc(NC(=O)c2ccco2)c(C(c2ccccc2)N2CCC(C)CC2)c1C (configuration not stated) | inconclusive [cytotoxic, single point] |  |
| CCOC(=O)[C@]12CCC=C1N(Cc1cccc3ccccc13)C(=O)[C@H](CC(=O)NCc1ccc(OC)c(OC)c1)C2 | inconclusive [cytotoxic, partial curve] |  |
| COc1cccc(-c2cn3nc4c(nc3n2)CCCC4)c1 | active: 16.4 µM |  |
| COc1ccc(C2=CCCC2)c(OC)c1 |  | inconclusive: 21.5% |
| O=C(CNCc1ccccn1)N1CCc2ccccc2C1 | inconclusive [rising, single point] |  |
| O=C(O)CC/C(=N\Nc1ccc(S(=O)(=O)N2CCCC2)cc1[N+](=O)[O-])c1cccs1 | active: 32.6 µM |  |
| Cc1nc2nc(-c3cccs3)[nH]c2cc1Br | inconclusive [cytotoxic, partial curve] |  |
| C=CCn1c(SCc2ccc(C(=O)NCCO)cc2)nc2ccccc2c1=O | inconclusive [cytotoxic, single point] |  |
| CC(C)(C)S(=O)N1Cc2cc(C(=O)NCC(F)(F)F)nc(-c3cccc(-c4cccc(F)c4)c3)c2[C@@H]1CCO (some centres not stated) | active: 20.6 µM |  |
